The values that follow come from PubChem BioAssay AID504374 (National Center for Advancing Translational Sciences (NCATS), 2011).

In all, about 1,500 compounds went through this assay and about 100 (6.7%) were called active. Inconclusive results (about 7%) are left out. Calls come from the whole dose curve; as a rule, active = well fitted inhibition curve with a large enough effect; inconclusive = small, poorly fitted or top-dose-only effect, or effect the other way; inactive = flat fitted curve, though single readings scatter. This is one part of the list.
% is set by controls: 0 for no effect and ±100 for the full control effect; potency is the fitted concentration of half-maximal effect.

For the test, the target named is Runt-related transcription factor 1 (Homo sapiens) + Core-binding factor subunit beta (Homo sapiens) (UniProt Q01196+Q13951). Kind of test: qHTS Assay for Compounds Blocking the Interaction Between CBF-beta and RUNX1 for the Treatment of Acute Myeloid Leukemia: Hit Validation. Note: nearly all actives have a fitted effect of over 60% in size. As to conditions: AlphaScreen CBFb-His/RUNX1-biotin binding; series mostly up to 59.8 µM; activity, negative = inhibition: at the top concentration. In outline: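 Compounds were added to a premixed CBF-beta-His/RUNX1-biotin complex (30 nM each, 20 min) for 15 min. Nickel and streptavidin AlphaScreen beads followed for 90 min at room temperature, with emission at 440 nm […].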
Chain of UniProt Q01196 (Q01196 whole entry, looked up): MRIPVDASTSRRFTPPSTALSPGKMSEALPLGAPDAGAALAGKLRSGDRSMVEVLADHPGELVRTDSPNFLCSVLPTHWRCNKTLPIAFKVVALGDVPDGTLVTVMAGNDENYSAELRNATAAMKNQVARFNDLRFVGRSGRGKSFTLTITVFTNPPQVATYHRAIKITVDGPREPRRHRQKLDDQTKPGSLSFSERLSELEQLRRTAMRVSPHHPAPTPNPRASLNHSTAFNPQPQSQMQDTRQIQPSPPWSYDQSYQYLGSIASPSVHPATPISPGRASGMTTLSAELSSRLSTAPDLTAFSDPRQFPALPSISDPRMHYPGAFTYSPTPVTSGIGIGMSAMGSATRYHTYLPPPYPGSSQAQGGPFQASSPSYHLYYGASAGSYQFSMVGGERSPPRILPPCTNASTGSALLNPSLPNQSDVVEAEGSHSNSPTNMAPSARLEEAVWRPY
Chain of UniProt Q01196 (Q13951 whole entry, looked up): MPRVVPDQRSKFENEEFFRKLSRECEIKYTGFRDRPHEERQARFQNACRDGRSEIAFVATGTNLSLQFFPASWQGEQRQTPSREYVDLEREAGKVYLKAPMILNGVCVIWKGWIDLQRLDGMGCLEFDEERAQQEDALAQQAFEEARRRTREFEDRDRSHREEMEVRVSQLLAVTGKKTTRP
A general note: Quantitative high-throughput screening tests each substance at several concentrations.
`Cc1nc(-c2ccc3c(c2)CCC(=O)N3)cs1`: the “activity, negative = inhibition” value is inactive: -3.11%.

With `O=C(N/N=C/C1=Cc2ccccc2OC1)c1ccncc1`, the “activity, negative = inhibition” value was inactive: 5.44%.

On to `COc1ccc(C(=O)NC(=S)NNC(=O)c2c(-c3ccccc3)noc2C)cc1OC`, for which the “activity, negative = inhibition” value was inactive: -18.2%.

Regarding `CCOC(=O)CSc1nnc(Cn2nnc3ccccc32)n1-c1ccc(F)cc1`, the “activity, negative = inhibition” value is inactive: -4.39%.

In the case of `COc1cc(OC)c(OC)cc1/C=N/NC(=O)CCc1c(C)n[nH]c1C`, the “activity, negative = inhibition” value was inactive: -2.77%.

As for `CC(C)(C)Sc1ccc([N+](=O)[O-])cc1C(=O)Nc1ccncc1`, the “activity, negative = inhibition” value is inactive: -1.77%.

As for `O=C(Oc1c(-c2ccccc2)c(=O)n2c3c(cccc13)CC2)c1ccc(F)cc1`, the “activity, negative = inhibition” value is inactive: 5.18%.

`CC(=O)/C=C(\C)N=Nc1c(O)[nH]c2ccccc12`: the “activity, negative = inhibition” value is inactive: -1.25%.

`O=C(CN1CCN(S(=O)(=O)c2ccc(Cl)s2)CC1)N1CCOCC1`: the “activity, negative = inhibition” value is inactive: 3.13%.

For the compound `CC(C)(C)c1csc(Sc2ccc([N+](=O)[O-])cn2)n1`, the “activity, negative = inhibition” value was inactive: 3%.

With `COCc1cc(=O)n2[nH]c(-c3ccco3)cc2n1`, the “activity, negative = inhibition” value is inactive: -12.9%.

For the compound `CC(C)COC(=O)NC1c2ccccc2Oc2ccccc21`, the “activity, negative = inhibition” value is inactive: 3.64%.

With `Cn1c(NC(=O)c2ccc(F)cc2)c(-c2cccs2)c(=O)c2ccccc21`, the “activity, negative = inhibition” value was inactive: 4.67%.

Consider `COc1ccc(-c2nnsc2N2C(=O)c3ccccc3C2=O)cc1`, for which the “activity, negative = inhibition” value is inactive: -3.86%.

For the compound `O=C(Cc1n[nH]c(=O)c2ccccc12)OCc1c(Cl)cccc1Cl`, the “activity, negative = inhibition” value is inactive: -14.4%.

Regarding `COc1ccc(OS(=O)(=O)c2c(C)noc2C)cc1`, the “activity, negative = inhibition” value is inactive: -2.38%.

For the compound `c1ccc(-c2nnc(-c3ccccn3)nc2NC2CCCCC2)cc1`, the Potency is active: 2.24 µM.

On to `NS(=O)(=O)c1ccc(N/N=C/c2ccc(C(=O)O)cc2)c([N+](=O)[O-])c1`, for which the “activity, negative = inhibition” value is inactive: -4.55%.

With `CC(C)(C)c1ccc(NC(=O)c2ccsc2)cc1`, the “activity, negative = inhibition” value is inactive: 6.68%.

With `COC(=O)c1ccc(C(=O)NN)cc1`, the “activity, negative = inhibition” value is inactive: -0.261%.

With `CCOC(=O)CC(=O)CSc1nc(CC)c(C)cc1C#N`, the “activity, negative = inhibition” value is inactive: -13.7%.

`Cn1c(=O)c2c(nc(N3CCOCC3)n2C/C=C/c2ccccc2)n(C)c1=O`: the “activity, negative = inhibition” value is inactive: -3.33%.

Regarding `COc1cc(NC(=S)NCCO)c(OC)cc1Cl`, the “activity, negative = inhibition” value is inactive: -1.84%.

Turning to `O=C(Nc1ccc(Cl)cc1)N1CCCC(Cn2cccc2)C1` (stereo not drawn), the “activity, negative = inhibition” value was inactive: -8.78%.

On to `Clc1ccc(CSc2nncn2-c2ccc3c(c2)OCCO3)cc1`, for which the “activity, negative = inhibition” value is inactive: 3.74%.

With `COc1ccccc1C1CCN(C(=O)c2ccco2)CC1`, the “activity, negative = inhibition” value was inactive: -1.76%.

Take `CCCSc1sc(C(=O)OC)c(-c2cccs2)c1C#N`: the “activity, negative = inhibition” value was inactive: 4.32%.

For the compound `COc1cc(NC(N)=S)c(OC)cc1Cl`, the “activity, negative = inhibition” value was inactive: -8.15%.

Take `CNC(=O)COC(=O)c1ccc(Cl)c(S(N)(=O)=O)c1`: the “activity, negative = inhibition” value was inactive: -5.94%.

As for `COc1ccccc1N1C(=O)[C@@H]2[C@H](C1=O)[C@H](C(=O)c1ccc(OC(C)=O)cc1)N1N=CC=C[C@@H]21`, the “activity, negative = inhibition” value is inactive: -8.37%.

Consider `CCOc1ccc(/C=C2\CCc3ccccc3C2=O)cc1`, for which the “activity, negative = inhibition” value is inactive: -3.3%.

With `CCC1(CC)Nc2ccccc2C(=O)N1c1ccc(OC)cc1`, the “activity, negative = inhibition” value was inactive: -2.48%.

On to `O=C(Nc1ccc(C(F)(F)F)cn1)Nc1cccs1`, for which the “activity, negative = inhibition” value was inactive: 0.421%.

In the case of `Cc1nn(-c2ccccc2)nc1-c1nnc(-c2ccc(C(F)(F)F)cc2)o1`, the “activity, negative = inhibition” value is inactive: -14.5%.

Consider `COc1ccccc1C1CCN(C(=O)c2cccs2)CC1`, for which the “activity, negative = inhibition” value is inactive: 1.84%.

On to `CCN(CC)C(=N)/C(C#N)=N/Nc1ccc(C)cc1`, for which the “activity, negative = inhibition” value is inactive: -12.6%.

In the case of `Clc1c(Cl)c(Cl)c2n[nH]nc2c1Cl`, the “activity, negative = inhibition” value is inactive: -6.47%.

Take `NCC(=O)Nc1ccc(Cl)cc1C(=O)c1ccc[nH]1`: the Potency is active: 3.55 µM.

`Cc1ccc(C)c(NC(=S)N(CCN(C)C)C(C)c2ccccn2)c1` (stereo not drawn): the Potency is active: 4.86 µM.

`CC(=O)Nc1cccc(OCCCNC(=O)c2cccc3ccccc23)c1`: the “activity, negative = inhibition” value was inactive: -4.29%.

In the case of `CCCc1c(NC(=O)Nc2ccc(F)cc2)cnn1-c1ccccc1`, the “activity, negative = inhibition” value was inactive: -6.62%.

Regarding `CC(=O)Nc1ccc(S(=O)(=O)Nc2ccc(C(=O)NCC(=O)O)cc2)cc1`, the “activity, negative = inhibition” value was inactive: 4.22%.

Regarding `CC12CCC(C(=Nc3ccc(N=C4C(=O)C5(C)CCC4C5(C)C)cc3)C1=O)C2(C)C`, the “activity, negative = inhibition” value was inactive: -27.3%.

For the compound `CCC(CC)NCCOC(=O)c1ccc([N+](=O)[O-])cc1`, the “activity, negative = inhibition” value is inactive: -1.76%.

Take `CCC(C)c1ccc(OCc2ccc(C(=O)OC)o2)cc1` (stereo not drawn): the “activity, negative = inhibition” value is inactive: 39.2%.

In the case of `O=[N+]([O-])c1ccc(Sc2ccccn2)nc1`, the “activity, negative = inhibition” value is inactive: -3.29%.

For the compound `CCOC(=O)c1cn2nc(Oc3ccccc3)ccc2n1`, the “activity, negative = inhibition” value is inactive: -1.38%.

As for `[O-][N+]12CCCCC1CCCC2CO` (stereo not drawn), the “activity, negative = inhibition” value was inactive: -7.8%.

With `O=C(O)c1ccccc1C(=O)Nc1ccc(-n2ccc(C(F)(F)F)n2)cc1`, the “activity, negative = inhibition” value is inactive: -0.393%.

Turning to `Cc1ccc(Cl)cc1NC(=S)NN`, the “activity, negative = inhibition” value was inactive: -9.41%.

With `CC(=O)Nc1nnc(CSCc2ccc(F)cc2)s1`, the “activity, negative = inhibition” value is inactive: -1.58%.

As to `CCOC(=O)COc1nc2c(c(-c3ccco3)c1C#N)CCc1ccccc1-2`, the “activity, negative = inhibition” value was inactive: -2.28%.

For `CCn1c2ccccc2c2cc(NC(=O)c3ccccc3-c3ccccc3C(=O)O)ccc21`, the “activity, negative = inhibition” value was inactive: 10%.

Consider `Cc1nc([N+](=O)[O-])cn1CCC#N`, for which the “activity, negative = inhibition” value was inactive: 4.03%.

With `COc1ccc(C(=O)CN2CCN(c3cc(C)nc4ccccc34)CC2)cc1`, the “activity, negative = inhibition” value was inactive: -4.52%.

Turning to `COC(=O)Cc1[nH]c(=O)[nH]c1C(=O)OC`, the “activity, negative = inhibition” value was inactive: -2.87%.

As for `CCn1c(NC(=O)c2ccccc2F)c(-c2cccs2)c(=O)c2ccccc21`, the “activity, negative = inhibition” value was inactive: -8%.

Consider `COC(=O)CC1C(=O)NC(C)=C1C(=O)OC` (stereo not drawn), for which the “activity, negative = inhibition” value is inactive: -12.4%.
